The record followed here is PMC4336329 (PLoS ONE, 2015).

Each structure is given as a SMILES string. The campaign covered roughly 310,000 compounds. About 14,000 (4.5%) showed an effect of 50% or more. The effect is printed as a negative number. The list shows a part of the results.
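Note: peak tail current of the secondary pulse compared with the same well before compound.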

In the test the target is human ether-à-go-go-related gene (hERG) potassium channel (human, UniProt Q12809). The test can be described thus: primary screen, population patch clamp on CHO cells stably expressing hERG.
Chain of human ether-à-go-go-related gene (hERG) potassium channel (Q12809 whole entry, looked up): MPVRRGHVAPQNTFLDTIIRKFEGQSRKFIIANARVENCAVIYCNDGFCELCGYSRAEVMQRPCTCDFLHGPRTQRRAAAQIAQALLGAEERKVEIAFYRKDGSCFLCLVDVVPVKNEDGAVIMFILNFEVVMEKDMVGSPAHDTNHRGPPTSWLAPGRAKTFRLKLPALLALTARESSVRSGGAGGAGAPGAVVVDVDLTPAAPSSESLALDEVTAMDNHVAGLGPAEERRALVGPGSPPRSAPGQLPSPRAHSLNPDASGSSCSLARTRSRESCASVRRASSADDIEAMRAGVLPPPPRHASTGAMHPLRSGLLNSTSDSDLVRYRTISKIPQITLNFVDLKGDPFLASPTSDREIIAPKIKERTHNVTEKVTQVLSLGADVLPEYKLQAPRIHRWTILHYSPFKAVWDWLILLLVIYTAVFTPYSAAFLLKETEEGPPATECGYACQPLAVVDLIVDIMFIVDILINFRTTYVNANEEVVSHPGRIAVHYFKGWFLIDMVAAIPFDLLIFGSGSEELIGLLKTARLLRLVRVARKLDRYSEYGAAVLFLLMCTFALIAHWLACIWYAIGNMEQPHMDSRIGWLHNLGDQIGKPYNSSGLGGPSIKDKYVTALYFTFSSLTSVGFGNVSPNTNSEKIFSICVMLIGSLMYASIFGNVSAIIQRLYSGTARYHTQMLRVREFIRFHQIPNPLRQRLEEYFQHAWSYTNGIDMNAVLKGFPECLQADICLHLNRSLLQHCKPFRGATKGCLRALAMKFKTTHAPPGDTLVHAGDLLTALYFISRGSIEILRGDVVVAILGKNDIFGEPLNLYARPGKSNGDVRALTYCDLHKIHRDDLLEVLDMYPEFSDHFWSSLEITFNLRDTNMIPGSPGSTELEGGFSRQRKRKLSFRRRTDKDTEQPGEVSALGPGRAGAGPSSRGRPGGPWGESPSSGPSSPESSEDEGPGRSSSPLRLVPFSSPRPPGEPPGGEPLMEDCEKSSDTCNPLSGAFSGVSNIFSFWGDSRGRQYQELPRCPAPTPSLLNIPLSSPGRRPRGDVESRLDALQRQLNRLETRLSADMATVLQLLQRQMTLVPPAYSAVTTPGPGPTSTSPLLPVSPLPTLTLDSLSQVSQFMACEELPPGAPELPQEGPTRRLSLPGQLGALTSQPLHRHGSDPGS
With `COc1cccc(/C=C2\N=C3CCCCCN3C2=O)c1`, the “hERG current change (%, negative = inhibition) at 10uM” value amounted to 1.51%.
With `O=C(NCc1ccco1)c1nc(-c2ccc(F)cc2)no1`, the “hERG current change (%, negative = inhibition) at 10uM” value is reported as -13.3%.
Consider `Cc1cc(C(=O)O)c(C)n1-c1ccccc1`, for which the “hERG current change (%, negative = inhibition) at 10uM” value was found to be 2.95%.
Turning to `CCC(C(=O)OCC(=O)Nc1c(Cl)cccc1Cl)c1ccccc1` (stereo not drawn), the “hERG current change (%, negative = inhibition) at 10uM” value is recorded as 6.64%.
Regarding `COC(=O)c1ccc(CNC(=O)c2ccc3oc(C(C)C)nc3c2)cc1`, the “hERG current change (%, negative = inhibition) at 10uM” value came out at 17.8%.
The figure for `CC(C)CNC(=O)COC(=O)c1cc(Cl)cc(Cl)c1N` is -11.3%; for `Cc1ccccc1C(=O)NNC1=NCCC1` it is -0.11%; for `CCCN(CCC)C(=O)CSc1nc2ccccc2c(=O)n1CC1COc2ccccc2O1` (stereo not drawn) it is -19%.
The figure for `CCOc1cc(N2CCOCC2)c(OCC)cc1NC(=O)c1ccc(S(C)(=O)=O)cc1` is 9.89%; for `CCC(=O)Nc1nc2ccccc2n1CCN(CC)CC` it is -14.1%; for `Cc1[nH]c2c(Cl)cccc2c(=O)c1CN1CCCCCC1` it is -32.7%.
Turning to `CC(NC(=O)c1cccc(S(=O)(=O)N2CCc3ccccc32)c1)c1ccco1` (stereo not drawn), the “hERG current change (%, negative = inhibition) at 10uM” value is reported as -48%.
The figure for `O=C(CCc1nnc2ccc(NCc3ccco3)nn12)N1CCN(c2ccccc2)CC1` is -56.3%; for `Cn1c(-c2ccc3c(c2)OCO3)cnc1NCc1ccccc1.O=C(O)C(=O)O` it is -60%; for `COc1ccccc1/C=N/NC(=O)c1cccc(NC(=O)c2ccccc2Cl)c1` it is -8.31%.
The figure for `O=C1/C(=C/c2ccccc2F)SC(=S)N1CC(=O)N1CCCCC1c1cccnc1` (stereo not drawn) is 1.73%; for `CCn1c(CN2CCOCC2)nnc1SCC(=O)Nc1ccc(C)cc1` it is 12.4%.
The figure for `Cn1nc(C(F)(F)F)c(C(=O)Nc2ccc(F)cc2F)c1Cl` is 5.9%; for `CC12CCC(=O)N1C(C(=O)NCc1ccccc1Cl)CS2` (stereo not drawn) it is -9.42%.
For `Cc1ccc(N(C(=O)C2CCC(=O)N2)C2(C(=O)NC3CCCC3)CCCCC2)cc1` (stereo not drawn), the “hERG current change (%, negative = inhibition) at 10uM” value was found to be 0.218%.
The figure for `CNC(=O)COC(=O)/C=C/c1nc2ccccc2s1` is 13.1%; for `OCCC1CN(CC2CCCCC2)CCN1C1CCCC1` (stereo not drawn) it is -20.2%.
As for `Cc1ccc(S(=O)(=O)N2CCOCC2)cc1C(=O)NCc1ccc(F)cc1`, the “hERG current change (%, negative = inhibition) at 10uM” value is on record as -19.3%.
Consider `Cc1nc(C(F)(F)F)c(C(=O)N=CN(C)C)s1`, for which the “hERG current change (%, negative = inhibition) at 10uM” value was found to be 19.4%.
For `C(=N\Nc1nc2ccccc2s1)/c1ccc2c(c1)OCO2`, the “hERG current change (%, negative = inhibition) at 10uM” value stood at 6.22%.
Consider `O=c1c2ccccc2nc(-c2ccccc2)n1-c1cccc(O)c1`, for which the “hERG current change (%, negative = inhibition) at 10uM” value was determined as 4.12%.
The figure for `O=C(O)C(=O)O.O=C(c1cccc2ccccc12)N1CCN(CC2CC=CCC2)CC1` (stereo not drawn) is -14.8%.
The figure for `COC(=O)c1ccc(NC(=S)NC(=O)c2c(Cl)cnn2C)cc1` is 26.2%.
The figure for `O=C(NCC(=O)N1CCN(C(=O)c2ccccc2)CC1)c1ccccc1` is 5.05%; for `Cc1csc(C(=O)NN)c1N(C)C` it is 16.4%.
Turning to `Cl.NC1(C(=O)O)CC1`, the “hERG current change (%, negative = inhibition) at 10uM” value is recorded as 19.8%.
As for `COc1ccc(/C=N/NC(=O)c2ccccc2O)cc1CN1CCOCC1`, the “hERG current change (%, negative = inhibition) at 10uM” value is -12.8%.
The figure for `O=C(NCc1ccc(OC(F)(F)F)cc1)C1CC(c2ccccc2C(F)(F)F)=NO1` (stereo not drawn) is -11.6%; for `O=C(CSc1ccc2c(c1)OCCO2)Nc1cccnc1` it is 19.4%.
The figure for `O=C(COC(=O)c1c[nH]c(=O)[nH]c1=O)Nc1ccccc1F` is 15.6%; for `CCCCNS(=O)(=O)c1ccc(OC)c2ncccc12` it is -3.77%; for `c1ccc2[nH]c(CSc3nccs3)nc2c1` it is -6.76%.
The figure for `CCc1nnc(NC(=O)CSc2nnc(-c3ccco3)n2C)s1` is 10.1%; for `CCN1CCCC1CNC(=O)c1cc2c(OC)c(OC)c(OC)cc2[nH]1` (stereo not drawn) it is 23.2%; for `Cc1ccc(/C=N/NC(=O)Cc2ccc(Cl)cc2)c(O)c1` it is 3.53%.
On to `CC(C)(C)c1ccc(C(CC(=O)O)NC(=O)Cc2ccc(F)cc2)cc1` (stereo not drawn), for which the “hERG current change (%, negative = inhibition) at 10uM” value amounted to 17.3%.
The figure for `O=[N+]([O-])c1ccc(Nc2nc(N/N=C/c3cccc(F)c3)nc(N3CCCC3)n2)cc1` is -1.42%.
As for `CC(C)(C)C1CCC(=NNC(=O)c2ccc(Br)o2)CC1` (stereo not drawn), the “hERG current change (%, negative = inhibition) at 10uM” value was determined as 9.16%.
As to `CN1C(=O)NC(c2ccccc2Cl)C2=C1CC(C)(C)CC2=O` (stereo not drawn), the “hERG current change (%, negative = inhibition) at 10uM” value was 5.71%.
Consider `O=C(NC12CC3CC(CC(C3)C1)C2)C12CC3CC(C1)CC(n1cnc(Cl)n1)(C3)C2`, for which the “hERG current change (%, negative = inhibition) at 10uM” value was 2.42%.
As for `COc1ccccc1CNC(=O)COC(=O)c1ccc2c(=O)n3c(nc2c1)CCCCC3`, the “hERG current change (%, negative = inhibition) at 10uM” value is -2.3%.
The figure for `Cc1ccc(S(=O)(=O)N2[C@@H](c3cccc(Cl)c3)C(C(=O)O)=CC[C@H]2c2ccc(Cl)cc2)cc1` is 17.6%; for `COc1ccccc1OCc1ccc(C(=O)N(C)C)o1` it is 13.4%; for `COc1ccc(NC(C)=O)cc1S(=O)(=O)Nc1ccc2c(c1)OCCO2` it is 10.4%.
The figure for `CC1OC2(OC1C)C(=O)Nc1ccccc12` (stereo not drawn) is 3%; for `CCO[C@@H]1OC(C(=O)NCc2nc3ccccc3[nH]2)=C[C@H](c2ccc(C(F)(F)F)cc2)[C@H]1CCCO` it is -3.34%.
Regarding `Cc1nnc(-c2ccccc2)nc1N(C)C`, the “hERG current change (%, negative = inhibition) at 10uM” value is given as -5.86%.
For `COc1ccc(C(=O)N(CC(=O)Nc2sc(C)c(C)c2C(N)=O)C2CCCC2)cc1`, the “hERG current change (%, negative = inhibition) at 10uM” value is listed as -3.88%.
The figure for `CCc1ccccc1NC(=O)CSc1nc2ccccc2n1CC(=O)N1CCCC1` is 4.01%.
`CCOc1ccccc1NC(=O)C1CCCN(C(=O)Nc2ccccc2)C1` (stereo not drawn): the “hERG current change (%, negative = inhibition) at 10uM” value was -1.4%.
The figure for `N#CC(=C1CCCC1)c1nc(-c2ccccc2O)cs1` is 2.45%; for `CCSc1nnc2c(n1)OC1(CCCC1)Nc1ccccc1-2` it is 2.61%; for `CNC(=O)N1CCN(C(=O)NC)CC1` it is 10.8%.
The figure for `CC(C)C[C@H]1COCCS(=O)(=O)N1Cc1ccc(Cl)c(Cl)c1` is -2.04%.
With `O=C(NCCS(=O)(=O)N1CCN(c2ccccc2F)CC1)c1ccc2c(c1)OCO2`, the “hERG current change (%, negative = inhibition) at 10uM” value is on record as 11.2%.
For `CS(=O)(=O)N1CCC(Oc2ccccc2C(=O)N2CCN(CC3CC3)CC2)CC1`, the “hERG current change (%, negative = inhibition) at 10uM” value is given as 20.2%.
The figure for `CN(C)C(=S)NC(=O)C12CC3(C)CC(C)(CC(C)(C3)C1)C2` is 17.4%.
On to `O=C(Nc1nc(-c2nc3ccccc3s2)cs1)C1COc2ccccc2O1` (stereo not drawn), for which the “hERG current change (%, negative = inhibition) at 10uM” value stood at 5.47%.
The figure for `COc1ccc(/C(C)=C2/SC(=S)N(CCC(=O)O)C2=O)cc1` is 8.29%; for `O=C1C(=O)N(Cc2ccccc2)C(c2cccc(O)c2)/C1=C(\O)c1ccc2c(c1)OCCO2` (stereo not drawn) it is 5.96%; for `O=C(CSc1nc2c(c(=O)n1-c1ccccc1)SCC2)N1CCOCC1` it is 5.25%.
On to `Cc1cccc(NS(=O)(=O)c2c(C)[nH]c(C)c2C(=O)N2CCCC2)c1`, for which the “hERG current change (%, negative = inhibition) at 10uM” value turned out to be 14%.
With `COc1ccc([N+](=O)[O-])cc1NC(=S)Nc1ccccc1`, the “hERG current change (%, negative = inhibition) at 10uM” value is given as -31.5%.
The figure for `COc1ccc(C2NC(Cc3ccccc3)(C(=O)O)C3C(=O)N(c4ccccc4OC)C(=O)C23)cc1` (stereo not drawn) is 11.6%; for `COCCCNC(=O)/C(C#N)=c1\s/c(=C\c2ccccc2OC(F)F)c(=O)n1CCCOC` it is 13.7%.
The figure for `O=C1Nc2ccc(S(=O)(=O)N3CCOCC3)c3cccc1c23` is 1.48%.
The figure for `Cc1cc([N+](=O)[O-])nn1CC(=O)Nc1c(C)n(C)n(-c2ccccc2)c1=O` is 18.4%; for `CCO[C@H]1OC(C(=O)NC2CC2)=C[C@@H](c2csc3ccccc23)[C@@H]1CCCO` it is -34.5%; for `N#CCc1nc(CSc2nc3ccccc3o2)cs1` it is 5.14%.
On to `CCOc1ccc(C(=O)CCC(=O)N(CC)CC(=O)NCc2cccs2)cc1`, for which the “hERG current change (%, negative = inhibition) at 10uM” value is -19.9%.
Regarding `COCCNC(=S)N/N=C(\C)c1cccc(OC)c1`, the “hERG current change (%, negative = inhibition) at 10uM” value was -27.8%.
The figure for `CC(=O)c1ccc(C(=O)N2CCCC(CNC(=O)c3ccccc3Cl)C2)cc1` (stereo not drawn) is -2.66%.
The figure for `COc1cccc(Cn2c(NCC(C)C)nc3c2c(=O)n(C)c(=O)n3C)c1` is -10.2%; for `O=C(CSc1nnc(-c2cccnc2)n1Cc1ccco1)c1ccc(Cl)cc1` it is -63.6%; for `CC(C)c1ccc(NS(=O)(=O)c2cn(C)c(=O)n(C)c2=O)cc1` it is 2.97%.
The figure for `COc1ccc(-c2nc[nH]c2[N+](=O)[O-])cc1` is 9.19%; for `CC(C)Cn1c(N)c(C(=O)CSc2nnc(-c3ccco3)n2C)c(=O)n(C)c1=O` it is -2.89%.
As to `COC(=O)C1=C(c2cccc(C#N)c2)C[C@@H]2CC[C@H]1N2C(=O)NC(C)C`, the “hERG current change (%, negative = inhibition) at 10uM” value was -11.7%.
The figure for `Cc1c(C(=O)Nc2ccc(S(N)(=O)=O)cc2)oc2ccc(Cl)cc12` is 27.2%; for `COCC(C)n1c(C)cc(C(=O)CSc2ccc(NC(C)=O)cc2)c1C` (stereo not drawn) it is -8.41%.
The figure for `CCNC(=O)c1nc[nH]c1C(=O)NCC` is 1.23%; for `Cc1ccc2c(c1)C1CN(C)CCC1N2C(=O)c1cn(-c2ccccc2)nc1-c1ccccc1` (stereo not drawn) it is -65.6%.
The figure for `NS(=O)(=O)c1ccc(NC(=O)CSc2nc(Nc3ccccc3)nc(N3CCOCC3)n2)cc1` is 21.3%.
Regarding `O=C(C(=O)N1CCCC1)c1c[nH]c2ccccc12`, the “hERG current change (%, negative = inhibition) at 10uM” value was determined as 7.14%.
For the compound `CCN(c1cccc(C)c1)S(=O)(=O)c1ccc2c3c(cccc13)C(=O)N2`, the “hERG current change (%, negative = inhibition) at 10uM” value is 5.84%.
